± gives the standard deviation. Whole data set: some 5,500 sequences, median “pre-steady-state target cleavage rate” near 0.1, cut for the highest 2% near 0.64. The entries are a selection whose mix differs from that of the whole data set.
The sequences below were run on MIWI (PIWIL1) piRISC loaded with piRNA #2 (30 nt) (assay: pre-steady-state target cleavage rate (min^-1); MIWI and MILI are mouse PIWI proteins and EfPiwi is from a freshwater sponge; tags in brackets are library labels; higher = faster piRNA-guided slicing of the target). Conditions: guide: piRNA #2 5'p-UUAGGUAACCCAGUAGAUCCAGAGGAAUUC; auxiliary factor: 500 nM mouse GTSF1.
Procedure, shortened: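 Cleave-'n-Seq used a transcribed, DNA-blocked target RNA library at 0.1 nM and active affinity-purified piRISC with one synthetic guide at 1 nM, with or without 500 nM GTSF1 partner protein, in HEPES–potassium acetate buffer at 33 °C for 0–8 or 0–960 min. Uncleaved targets were sequenced and normalised to depth and to weakly complementary targets, and three trials were pooled with k3 capped at 0.0001 min^-1. The pre-steady-state cleavage rate was estimated by a burst-and-steady-state fit.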

| Sequence | pre-steady-state target cleavage rate |
| --- | --- |
| CUUAACCUCUGGAUCUACUAGGUUACCUAA | 0.103 ± 0.015 |
| CAAUUCCUCUGGAUCUACUCGGUUACCUUA | 0.0915 ± 0.033 |
| CUUAAGGUCUGGACCUACUGGGUUACCUAA | 0.11 ± 0.021 |
| CACUUCCUCUGGAUCUACUGGGUUACCUAA | 0.456 ± 0.056 |
| CUUAAGGACAUGGAUCUACUGGGUUACCUAA | 0.111 ± 0.031 |
| CUUAACCUCUGGUAGUACUGGGUUACCUAA | 0.132 ± 0.018 |
| CUAUUCCUCUCGAUCUACUGGGUUACCAAA | 0.711 ± 0.047 |
| CUUUACCUCUGGAUCUACUGGGUUUCCUAA | 0.167 ± 0.029 |
| CUUAAGGUCUGGAUCUACUGGGUUACCUAC [g2:g23:cont:t1C] | 0.246 ± 0.027 |
| CUUAUCCUCUGGUUCUACUGGGUUACCUUA | 0.368 ± 0.058 |
| CUUUUCCUGUGGAUCUACUGGGUUACCUAA | 0.486 ± 0.049 |
| CUUAUCCUCUGGAUCUACUCGGUUACCAAA | 0.0835 ± 0.031 |
| CUUAUCGUCUGGAUCUAGUGGGUUACCUAA | 0.0569 ± 0.018 |
| GAAUUGCACUGGAUCUACUGGGUUACCUAA | 0.0867 ± 0.028 |
| CUAUUCCUCAGGAUCUACUGGCUUACCUAA | 0.0647 ± 0.013 |
| CUUAACCUCUCGAUCUACUCGGUUACCUAA | 0.129 ± 0.013 |
| CUUUUCCUCUCGAUCUACUGGGUAACCUAA | 0.345 ± 0.033 |
| CUAUUCCUCAGGAUCUACUGGGUAACCUAA | 0.206 ± 0.042 |
| CUUAACCUCUGGAUCUACUCCGUUACCUAA | 0.0247 ± 0.0072 |
| CUUAACCUCUGGAUCUAGUGGGUAACCUAA | 0.0284 ± 0.0067 |
| CUUAAGGUCUCGAUCUAGUGGGUUACCUAA | 0.0405 ± 0.0073 |
| CUUAACCUGUGGAUCUACUGGGAUACCUAA | 0.14 ± 0.017 |
| GAUUUCCUCUGGAACUACUGGGUUACCUAA | 0.225 ± 0.04 |
| CUUUCCUCUGGAUCUACUGGGUUACCUAA | 0.349 ± 0.052 |

| Sequence | pre-steady-state target cleavage rate |
| --- | --- |
| GAAUUCCUCUGGAUGAACUGGGUUACCUAA | 0.249 ± 0.033 |
| CUUAAGGACUGGAUCUACUGGGUUACGUAA | 0.413 ± 0.093 |
| CUUAUCCUCUGGAUCUACUGGGGUUACCUAA | 0.0233 ± 0.0067 |
| CAAUACCUCUGGAUCUACUGGGUAACCUAA | 0.18 ± 0.035 |
| CUUAAGGUCUGGUUCAACUGGGUUACCUAA | 0.141 ± 0.032 |
| CUUAAGCUCUGGUCUACUGGGUUACCUAA | 0.0318 ± 0.0076 |
| CUUAACCUCAGGAUCUAGUGGGUUACCUAA | 0.128 ± 0.017 |
| CUUAAGCUCAGCAUCUACUGGGUUACCUAA | 0.169 ± 0.017 |
| GAAUUGCUCUGGAUCUACUGGGAUACCUAA | 0.077 ± 0.024 |
| CUUAAGGACUUGGAUCUACUGGGUUACCUAA | 0.153 ± 0.033 |
| CUUAACCUCUGGAUCUUCUCGGUUACCUAA | 0.0364 ± 0.0059 |
| CUUAAGCUGCUGGAUCUACUGGGUUACCUAA | 0.0922 ± 0.012 |
| CUUAAGGUCUGGAUCUACUGGGUUUACCUAA | 0.269 ± 0.037 |
| CUUAACCUAUGGAUCUACUGGGUUACCUAA | 0.424 ± 0.034 |
| CUAUUCCUCUGGAUCUACUGGAGUUACCUAA | 0.00422 ± 0.0041 |
| CUUAACCUCUCGAUCAACUGGGUUACCUAA | 0.429 ± 0.035 |
| CUUAAGCUGUGGAUCUACUGCGUUACCUAA | 0.13 ± 0.044 |
| GAAUUCCUUGGAUCUACUGGGUUACCUAA | 0.597 ± 0.05 |
| CUUUUCGACUGGAUCUACUGGGUUACCUAA | 0.389 ± 0.052 |
| CUUAUCCUCUCGAUCUACUGGCUUACCUAA | 0.175 ± 0.014 |
| CUUAAGCUCUGGAUCUACUGGGUAUGCUAA | 0.0163 ± 0.0045 |
| CUUAAGGUCUGCAUCUACUGCGUUACCUAA | 0.0618 ± 0.018 |
| GAAUUCCUCAGGAACUACUGGGUUACCUAA | 0.301 ± 0.06 |
| CUUAAGGACUGGAAUCUACUGGGUUACCUAA | 0.0272 ± 0.022 |

| Sequence | pre-steady-state target cleavage rate |
| --- | --- |
| CUUAACCUCUGGAUCUACUGCGAUACCUAA | 0.125 ± 0.02 |
| CUUAAGGAGUGGAACUACUGGGUUACGUAA | 0.099 ± 0.031 |
| GAAUUCCUCUGGAUCUCCUGGGUUACCUAA | 0.237 ± 0.063 |
| CUUAUCCUCUGGAUCUACUGGCUUACCUUA | 0.0614 ± 0.018 |
| CUUAAGCUCUGAUCUACUGGGUUACCUAA | 0.0872 ± 0.01 |
| CUUAACCUCAGGAUCUACUGGGUUACCUUA | 0.414 ± 0.059 |
| CUUAUCCUCUAGAUCUACUGGGUUACCUAA | 0.5 ± 0.035 |
| CUUAACCUCGGAUCUACUGGGUUACCUAA | 0.31 ± 0.063 |
| CUUAAGCUCUGCUUCUACUGGGUUACCUAA | 0.226 ± 0.043 |
| GAAUUCCUCUGGAUCUAGUCGGUUACCUAA | 0.0101 ± 0.0025 |
| CUUUUCCUCACCAUCUACUGGGUUACCUAA | 0.278 ± 0.04 |
| CUUAAGGUCUGGAUCUAGAGGGUUACCUAA | 0.0111 ± 0.0025 |
| CUUUUCCUCUGGAUCUACUGGGUUAGCCUAA | 0.47 ± 0.049 |
| CUUAAGGUGUGGAUCUUCUGGGUUACCUAA | 0.0144 ± 0.007 |
| CUUAAGGAGACGAUCUACUGCGUUACCUAA | 0.00291 ± 0.0026 |
| CUUUUCCUCAGGAACUACUGGGUUACCUAA | 0.327 ± 0.034 |
| CUUAAGGAGUGGAUCUACUGCGUUACCUUA | 0.016 ± 0.0041 |
| CUUAUCCUCUGGAUCUACUGGGUAACCUUA | 0.212 ± 0.059 |
| CUUAAGGAGACCUAGUACUGGGCUUACCUAA | < 0.0001 |
| CUUAUCCUCUGAUCUACUGGGUUACCUAA | 0.236 ± 0.029 |
| CUAUUCCUCUGGAUCUACUGGGUUACCUAU [g2:g28:cont:t1U] | 0.313 ± 0.04 |
| CUUUUCCUCUGGUUCUACUGGGAUACCUAA | 0.0748 ± 0.021 |
| CUUAAGGAGUGGAUCUACUGGGUUACGAUA | 0.0107 ± 0.0076 |
| GAAUACCUCUGGAUCAACUGGGUUACCUAA | 0.169 ± 0.034 |

Reference: the supplement of paper PMC10338343
